Publication doi:10.1101/2024.09.04.610228 (bioRxiv, 2024)

Target: FOXO4 forkhead domain (FHD) (95-195) (UniProt P98177 95-195)
Test: NMR 1H-15N heteronuclear NOE

B1: p53 transactivation domain (TAD) ([…]) (domain or fragment)
chain: not shown
binding result: binds
